Viability of KB3-1 and Nalm-6 cells after 48 h of drug alone (CellTiter-Glo), 11 doses over about 4.5 log units. % of DMSO wells, lower = more cell loss; AC50 from the fitted curve, lower = more potent. No active / inactive call. Nalm-6 was screened in two runs. AC50 is listed only for well-fitted inhibitory curves. KB3-1 is a HeLa-derived carcinoma line, Nalm-6 a B-cell precursor leukaemia line.
Legend:
[1] = tested on: Nalm-6; test: log AC50 of viability decrease (48 h) (log10 M); higher = less potent
Procedure: (§1)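 Eleven-dose screen of the NCATS MIPE 3 library on cells without co-treatment; CellTiter-Glo after 48 h. AC50 from the curve fit; only inhibitory curves of the better fit classes are listed.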

[2] = tested on: KB3-1; test: as above
Procedure: as §1

[3] = tested on: Nalm-6; test: viability (% of DMSO control); higher = more viable cells
Procedure: (§2)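 Eleven-dose screen of the NCATS MIPE 3 library on cells without co-treatment; CellTiter-Glo after 48 h, as % of DMSO wells.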

[4] = tested on: KB3-1; test: as above
Procedure: as §2

SMILES	log AC50 of viability decrease ([1]; run: 1)	log AC50 of viability decrease [2]	viability ([3]; run: 1, 0.00078 µM) [%]	viability ([3]; run: 1, 0.00234 µM) [%]	viability ([3]; run: 1, 0.00702 µM) [%]	viability ([3]; run: 1, 0.0211 µM) [%]	viability ([3]; run: 1, 0.0632 µM) [%]	viability ([3]; run: 1, 0.19 µM) [%]	viability ([3]; run: 1, 0.569 µM) [%]	viability ([3]; run: 1, 1.71 µM) [%]	viability ([3]; run: 1, 5.12 µM) [%]	viability ([3]; run: 1, 15.4 µM) [%]	viability ([3]; run: 1, 46.1 µM) [%]	viability ([3]; run: 2, 0.00078 µM) [%]	viability ([3]; run: 2, 0.00234 µM) [%]	viability ([3]; run: 2, 0.00702 µM) [%]	viability ([3]; run: 2, 0.0211 µM) [%]	viability ([3]; run: 2, 0.0632 µM) [%]	viability ([3]; run: 2, 0.19 µM) [%]	viability ([3]; run: 2, 0.569 µM) [%]	viability ([3]; run: 2, 1.71 µM) [%]	viability ([3]; run: 2, 5.12 µM) [%]	viability ([3]; run: 2, 15.4 µM) [%]	viability ([3]; run: 2, 46.1 µM) [%]	viability ([4]; 0.00078 µM) [%]	viability ([4]; 0.00234 µM) [%]	viability ([4]; 0.00702 µM) [%]	viability ([4]; 0.0211 µM) [%]	viability ([4]; 0.0632 µM) [%]	viability ([4]; 0.19 µM) [%]	viability ([4]; 0.569 µM) [%]	viability ([4]; 1.71 µM) [%]	viability ([4]; 5.12 µM) [%]	viability ([4]; 15.4 µM) [%]	viability ([4]; 46.1 µM) [%]	log AC50 of viability decrease ([1]; run: 2)
CNC(=O)N1\N=C(\C2=CC=C(N)C=C2)C3=CC4=C(OCO4)C=C3CC1C (stereo not given)	-5.53	-5.28	127	133	124	123	125	129	117	77	63.1	49.1	23.4	107	106	112	106	107	109	8.74	58.4	33.7	17.2	1.65	101	106	107	106	106	106	101	88.4	77.5	63	52.6	–
COc1ccc(-c2ccc3c(N4CCOCC4)nc(N4C[C@@H](C)O[C@@H](C)C4)nc3n2)cc1CO	-6.03	-6.98	89.1	101	95	94.1	89.1	88.1	68.6	56	49.3	46.4	32.6	100	105	107	107	97.6	90.2	69.2	62.5	51.5	47.9	26.1	104	98.8	96.3	87.4	77.5	65.1	51.1	42	42.2	37	38.8	-5.83
COc1ncc(-c2ccc3nccc(-c4ccnnc4)c3c2)cc1NS(=O)(=O)c1ccc(F)cc1F	-5.48	-6.63	62.3	55.6	48.4	47.6	45.6	40.6	40	26.4	20.3	13.2	1.57	72.1	64.2	53.6	52	52.3	38.4	35.7	28.1	18.4	14.7	1.17	83.2	81.1	71.3	59.5	52.3	45.6	47.2	45.8	47.1	43.1	8.09	-6.38
COc1cc2ncnc(-n3nc(-c4ccccn4)nc3N)c2cc1OC	-5.48	-5.38	98	104	112	104	98	100	97.1	76.6	37.7	25.1	8.45	105	109	112	113	97.6	111	98.1	74.4	44.3	19.9	4.6	92.6	95.6	91.4	91.7	94.9	93.2	92.3	80	56.7	45.9	32.1	-5.43
COc1cc2nc(-c3ccc(N4CCN(C)CC4)cc3)nc(NCCN3CCOCC3)c2cc1OC	-4.93	-4.73	94.6	96.6	101	104	73.7	98.6	81.9	58.5	63.2	31.5	2.03	106	100	104	108	104	101	82.6	66.2	21.8	5.3	3.62	88.6	88.2	92	90.2	87.6	90.1	71.4	61.1	58.6	51.4	5.32	-5.63
COc1cc2ncn(-c3cc(OCc4ccccc4C(F)(F)F)c(C(N)=O)s3)c2cc1OC	-6.68	-6.78	98.9	104	97.7	102	92.5	61.9	20	13.7	10.7	10.3	12.5	98.7	99.2	101	104	98.3	77.4	21.3	9.88	6.91	5.55	5.97	99.6	98.2	95.3	101	96.4	53.5	23.3	25	19	15.9	19.5	-6.53
COCC(=O)NC/C=C/c1ccc2ncnc(Nc3ccc(Oc4ccc(C)nc4)c(C)c3)c2c1	-4.73	-4.73	125	109	117	121	115	110	112	112	90.6	71.9	14.6	111	96.3	109	111	112	112	109	108	98.6	93.7	11.7	102	101	103	98.4	97.1	103	95.8	96.2	87.3	80.7	63.7	-4.63
C[C@@H](Oc1cc(-n2cnc3ccc(CN4CCN(C)CC4)cc32)sc1C(N)=O)c1ccccc1C(F)(F)F	-7.93	-8.73	92.2	94.3	86.8	16.1	13.8	14.9	16.7	16.3	13.6	16.2	2.13	106	102	100	21.7	11.3	11.3	11.5	12.2	10.2	10.3	1.75	100	61	27.9	28.7	27.9	31.6	32.6	36.8	35.8	33.1	3.53	-7.88
C[N]1C=C(C=N1)C2=C3\C=N/NC(=O)C4=C3C(=CC(=C4)NC(=O)[C@H](N)C5CCCCC5)[NH]2	-6.48	-5.73	113	112	106	124	96.4	84.5	39.2	16.9	15.3	12.7	2.98	107	108	111	105	92.9	95.5	55.9	17.8	10	8.97	0.748	100	101	100	99.9	92.4	90.8	76.9	51.6	40.5	40.9	13.9	-6.23
NC(=O)Nc1cc(-c2ccc(CN3CCOCC3)c(F)c2)sc1C(=O)N[C@H]1CCCNC1	-7.43	-6.68	104	104	106	81.7	29.3	12.2	7.71	5.84	3.61	1.24	-1.14	102	95.7	97.9	81	30.3	7.31	4.21	3.76	3.48	1.02	-1.29	98.9	101	98.1	96.4	76.8	58.4	24.2	11.2	7.87	6.88	3.83	-7.38
Nc1nc(Nc2ccc([S+](N)(=O)[O-])cc2)nn1C(=O)c1c(F)cccc1F	-5.98	-5.43	97.1	101	113	113	107	97.9	85.5	38.3	9.78	10.7	11.7	109	106	103	111	108	91.2	76.1	32	6.31	7.16	15.2	97.8	95.3	102	103	102	92.3	83.8	72.2	47.2	30.7	19.1	-6.08
